Values joined by “and” are separate entries in the source; they are usually repeats but may differ in a detail not shown here. Equal values may be shown once. The whole screen tested about 410,000 compounds, of which about 490 (0.12%) were called active. The shares of active, inactive and inconclusive entries below differ from those in the screen. Calls follow the shape of the dose curve; as a rule, active = well fitted inhibition curve with a large enough effect; inconclusive = small, poorly fitted or top-dose-only effect; inactive = flat fitted curve, though single readings scatter. Where the call is inconclusive, the potency comes from a doubtful curve fit. Where a structure was tested more than once in an assay, its records may differ in their call.
target: pyruvate kinase (Trypanosoma brucei) (UniProt Q57TT1); assay: qHTS of Trypanosoma Brucei Inhibitors; details: TbPYK enzyme, Kinase-Glo Plus ATP luminescence, 45 min; series mostly up to 76.8 µM; activity, negative = inhibition: at the top concentration; also: nearly all actives have a fitted effect of over 50% in size
Summary of the method: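 Luminescent Kinase-Glo Plus end-point after 45 min room-temperature reaction of T. brucei pyruvate kinase started with 130 uM ADP (final). Buffer TEA 50 mM pH 7.2 with KCl, MgCl2, BSA, Tween-20; titration-based qHTS with fitted concentration-effect curves.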
% is scaled to controls: 0 for no effect and ±100 for the full control effect; potency is read from the fitted curve at half-maximal effect; tags tell the direction and shape of the fitted curve.

SMILES	activity, negative = inhibition	Potency
CN(Cc1ccccc1)C(=O)C(C(=O)c1ccc(F)cc1)n1cc(Cl)ccc1=O (stereo not given)	inactive: -1.33%	–
CCOc1ccc(S(=O)(=O)N2CCCCC2)c2ccccc12	–	inconclusive: 31.6 µM [inhibitor, single point]
CCN1C(=O)/C(=C\N2CCCc3ccccc32)SC1=S	inactive: 1.89%	–
CN(Cc1cc(=O)n2ccsc2n1)C1CCCCC1	inactive: 2.15%	–
NNC(=O)CNC(=O)Nc1n[nH]c(=S)s1	–	inconclusive: 7.08 µM [inhibitor, full curve]
CCC(CC)C(=O)N1CCc2cc(OC)c(OC)cc2C1COc1ccccc1OC (stereo not given)	inactive: -4.45%	–
O=C(OCC1OC(OC(=O)c2cc(O)c(O)c(OC(=O)c3cc(O)c(O)c(O)c3)c2)[C@@H](OC(=O)c2cc(O)c(O)c(OC(=O)c3cc(O)c(O)c(O)c3)c2)C(OC(=O)c2cc(O)c(O)c(OC(=O)c3cc(O)c(O)c(O)c3)c2)C1OC(=O)c1cc(O)c(O)c(OC(=O)c2cc(O)c(O)c(O)c2)c1)c1cc(O)c(O)c(OC(=O)c2cc(O)c(O)c(O)c2)c1 (stereo not given in full)	–	inconclusive: 7.08 µM [inhibitor, partial curve, poor fit]
COCCNC(=O)CSc1nc2sc(C)c(C)c2c(=O)n1-c1ccccc1	inactive: -0.831%	–
CCN(CC)c1ccc(SS(=O)(=O)O)cc1	–	inconclusive: 22.4 µM [inhibitor, partial curve] and inconclusive: 14.1 µM [inhibitor, partial curve]
NC(=O)c1ccc(NC(=O)COC(=O)/C=C/c2ccc(Br)o2)cc1	inactive: -17%	–
CC(C)/C=C1\CC/C(=C\c2cccnc2)C1=O	inactive: -3.89%	–
O=C(NNC1CC(=O)N(c2ccccc2)C1=O)c1ccco1 (stereo not given)	inactive: -1.97%	–
CC(Oc1ccccc1)C(=O)Nc1nc2c(s1)C(=O)CC(C)(C)C2 (stereo not given)	inactive: 3.9%	–
Cc1ccc(-c2cc(-c3ccc(Cl)cc3)c(C#N)c(N)n2)o1	–	inconclusive: 35.5 µM [inhibitor, single point]
Nc1nc(=S)c2[nH]cnc2[nH]1	–	active: 14.1 µM
Cc1cccc(NC2=C(Cl)C(=O)OC2OC(C)C)c1 (stereo not given)	inactive: 2.41%	–
CCc1cccc(NC(=O)CSC2=NS(=O)(=O)c3ccccc32)c1	–	inconclusive: 25.1 µM [inhibitor, partial curve, poor fit]
COc1ccccc1CNC(=O)[C@H](C)NC(=O)C1CCN(C(=O)[C@@H](N)CC(C)C)CC1	inactive: -3.73%	–
Cc1cc(/C=C(\C#N)C(=O)O)c(C)n1CC1CCCO1 (stereo not given)	–	inconclusive: 28.2 µM [inhibitor, single point]
CN(C)c1ccc(C(=C2C=CC(=[N+](C)C)C=C2)c2c(O)c(S(=O)(=O)[O-])cc3cc(S(=O)(=O)O)ccc23)cc1	–	inconclusive: 22.4 µM [inhibitor, partial curve]

Source: PubChem BioAssay AID624173 (National Center for Advancing Translational Sciences (NCATS), 2012)
